Assay results from PubChem BioAssay AID463173 (ICCB-Longwood Screening Facility, Harvard Medical School, 2010).
Hit rate of the full screen: of about 52,000 compounds, about 1,700 (3.3%) were called active. Cut-off read from the data, not from the text of the source: active = survival mostly below about 52% (no sharp cut-off); inactive = mostly above about 56%. The list shows a part of the results.

What follows are compounds tested on Wild type (assay: S. aureus survival, RN4220 and DeltatarO strains – OD600, teichoic acid synthesis inhibitors, primary screen (AID 463173)). Settings: S. aureus RN4220 wild type/DeltatarO growth, OD600, 18 h, active compounds read low, screened at 18.75 µg/mL (by protocol).

SMILES | survival
COc1ccccc1CNC(=O)CCn1cnc2ccccc2c1=O | active: -6%
O=C(NC1CC(=O)N(c2ccc(F)cc2)C1)c1ccc2c(c1)OCO2 (centres undefined) | inactive: 71%
O=C(c1ccc2c(c1)N(Cc1cccc(Cl)c1)C(=O)c1ccccc1S2=O)N1CCN(c2cccc(C(F)(F)F)c2)CC1 (centres undefined) | inactive: 90%
Cc1ccc(N(C)C(=O)CN2C(=O)CCc3cc(S(=O)(=O)N4CCOCC4)ccc32)cc1 | inactive: 93%
O=C(N=Nc1[nH]c2ccccc2c1O)c1ccc(Cl)cc1 | inactive: 106%
Cc1cccc(Cn2nnc3c(=O)[nH]c(C4CCCN(C(=O)c5ccccc5Cl)C4)nc32)c1 (centres undefined) | inactive: 93%
CCN1CCN(C(c2ccccc2Cl)c2c(O)cc(C)n(Cc3ccco3)c2=O)CC1 (centres undefined) | inactive: 75%
O=C(Cn1c(=O)n2nc(-c3cccc(F)c3)nc2c2ccccc21)N1CCN(c2ccc(F)cc2)CC1 | inactive: 97%
Cn1c(=O)c2c(ncn2Cc2ccc(Cl)cc2)n(C)c1=O | inactive: 85%
CC1CCN(C(=O)C(C)NCc2ccc(F)cc2)CC1 (centres undefined) | inactive: 106%
COc1ccc(N=C2SCC(=O)N2C)cc1 | inactive: 107%
COc1ccc(N2CCN(C(=O)CNS(=O)(=O)c3ccc(Br)s3)CC2)cc1 | inactive: 61%
N#Cc1nc(/C=C/c2ccc(F)cc2)oc1NCc1ccc(F)cc1 | inactive: 79%
Cc1cccc(N2CCN(C(=O)c3noc4c3CCCCC4)CC2)c1C | inactive: 94%
CC(NC(=O)c1ccc(F)cc1)c1nc2ccccc2[nH]1 (centres undefined) | inactive: 68%
CCc1ccc(NC(=O)Cn2c(=O)n(-c3cc(OC)c(OC)c(OC)c3)c(=O)c3ccccc32)cc1 | inactive: 92%
Cc1cc(C(=O)C(=O)Nc2nncs2)c(C)n1-c1ccc(Cl)cc1 | inactive: 85%
COc1ccccc1NC(=O)c1cn(-c2ccccc2)nc1-c1ccccc1 | inactive: 81%
O=C(CNC(=O)c1ccc(F)cc1)OCc1cc(=O)n2nc(C3CCCCC3)sc2n1 | inactive: 99%
COc1ccc(OC)c(NC(=O)CN2CCCN(Cc3ccccc3Cl)S2(=O)=O)c1 | inactive: 133%
COc1ccc(NC(=O)C2C3C=CC(O3)C2C(=O)NCc2cccnc2)cc1 (centres undefined) | inactive: 100%
CCOc1cc(CNC(=O)c2ccc3c(c2)N(C)C(=O)C2CCCCN32)ccc1OC (centres undefined) | inactive: 88%
CCOc1ccccc1C(=O)NCc1nc2cccnc2n1Cc1ccc(C)cc1 | inactive: 131%

SMILES | survival
COc1ccc(CNC(=O)CCCn2nc(C)c3c(C)n(-c4ccc(C)cc4)nc3c2=O)cc1OC | inactive: 71%
Cc1ccc(N2CCN(C(=O)c3cnn(-c4ccc(C)c(C)c4)c3C3CCNCC3)CC2)c(C)c1 | inactive: 65%
Cc1ccc(-n2ncc3c(NC4CCCCC4)ncnc32)cc1Cl | inactive: 72%
COc1cc(S(=O)(=O)N(CCc2ccccc2)Cc2cccs2)ccc1-n1cnnn1 | inactive: 108%
CCN(c1ccccc1)c1nnc(NC(=O)Nc2ccc(Br)c(C)c2)s1 | inactive: 89%
O=C(c1ccc2c(Cl)c3c(nc2c1)CCCC3)N1CCN(c2cccc(C(F)(F)F)c2)CC1 | inactive: 85%
O=C(CSc1nccn1Cc1ccco1)Nc1cc(C(F)(F)F)ccc1Cl | inactive: 71%
CCOc1ccc(CNC(=O)CCS(=O)(=O)c2cc3c4c(c2)CCN4C(=O)CC3)cc1OC | inactive: 85%
O=C(CN1C(=O)COc2ccc(S(=O)(=O)N3CCCCCC3)cc21)N1CCN(c2ccccc2F)CC1 | inactive: 73%
CCc1ccc(S(=O)(=O)c2cn(CC)c3cc(N4CCCCC4)c(F)cc3c2=O)cc1 | inactive: 68%
COc1ccc2nc(NC(=O)c3cc(=O)c4cc(C)cc(C)c4o3)sc2c1 | inactive: 82%
Cc1ccc(CNC(=O)CN2CCN(Cc3ccc(F)cc3Cl)C2=O)cc1 | inactive: 81%
CC(C)C(=O)N1CCC(c2nc(-c3ccc(F)cc3)no2)CC1 | inactive: 111%
COc1cc(OC)c(NC(=O)C2CCN(S(=O)(=O)c3ccc4c(c3)oc(=O)n4C)CC2)cc1Cl | inactive: 88%
COc1ccc2c(CNCCc3cccs3)c(C(=O)O)n(Cc3cccc(F)c3)c2c1 | inactive: 60%
COc1ccc(NCc2nnc(SCC(=O)c3ccc(C)cc3)o2)cc1 | inactive: 108%
Nc1c(C(=O)NCc2ccc(Cl)cc2)sc2nc(-c3ccc(F)cc3)ccc12 | inactive: 98%
CCc1ccc(Nc2sc(C(=O)c3ccc(F)cc3)c(N)c2S(=O)(=O)c2ccccc2)cc1 | inactive: 86%
Nc1nnc(SCC(=O)NC2CCCCC2)s1 | inactive: 86%
COc1ccc(OC)c(NC(=O)CCNS(=O)(=O)c2ccc3c(c2)oc(=O)n3C)c1 | inactive: 86%
COCCn1c(N)cc(=O)[nH]c1=S | inactive: 107%
COc1cc(NC(=O)C2Cc3ccccc3N2C(=O)c2ccccc2)cc(OC)c1 (centres undefined) | inactive: 74%
Cc1cccc(C(=O)NNc2ncnc3c2cnn3-c2ccc(C)c(Cl)c2)c1 | inactive: 65%

SMILES | survival
Cc1ccc(-c2nc(CS(=O)CC(=O)NCCc3ccc(Cl)cc3)c(C)o2)cc1 (centres undefined) | inactive: 75%
CC(CNC(=O)CCCn1c(=O)c2cccn2c2ccc(F)cc21)c1ccccc1 (centres undefined) | inactive: 38%
CCOc1ccc(-n2nc(CO)c(C(=O)NCC(C)O)n2)cc1 (centres undefined) | inactive: 81%
COc1ccc(OCCn2nnc3sc4c(c3c2=O)CCCC4)cc1 | inactive: 81%
COC(=O)c1cc2sccc2n1CC(=O)Nc1cc(Cl)ccc1OC | inactive: 93%
CCOc1ccc(NCc2n[nH]c(=S)n2-c2ccc(C)cc2)cc1 | inactive: 122%
COc1ccc(N2CCN(c3ncnc4c3nnn4C)CC2)cc1 | active: -2%
CCC(=O)N1c2ccccc2CC1C(=O)N1CCN(c2ccccc2F)CC1 (centres undefined) | inactive: 69%
Cc1ccc(NC(=O)Cn2c(=O)n(CCCCC(=O)NCc3ccc4c(c3)OCO4)c(=O)c3ccccc32)cc1 | inactive: 98%
CCOC(=O)C1CCN(c2ncnc3c2c(-c2ccccc2)cn3-c2ccc(Cl)cc2)CC1 | inactive: 68%
CCOC(=O)c1c(C)[nH]c(C)c1S(=O)(=O)NCC(=O)NCc1ccccc1C | inactive: 134%
CCOc1ccccc1CNS(=O)(=O)c1cc(-c2onc(C)c2C)ccc1OC | inactive: 55%
N#Cc1c(C(F)(F)F)cc(-c2cccs2)nc1SCc1ccccc1F | inactive: 51%
CCOc1ccccc1Oc1nc(C)nc2c1oc1ccccc12 | inactive: 130%
Clc1ccccc1CSc1nc(NCCc2ccccc2)c2ccccc2n1 | inactive: 53%
Cc1nnnn1CCC(=O)NC(C)c1ccccc1 (centres undefined) | inactive: 120%
CCOc1ccccc1Nc1sc(C(=O)c2ccc(Cl)cc2)c(N)c1S(=O)(=O)c1ccccc1 | inactive: 19%
O=C(CSc1ncc2c(n1)-c1ccccc1N(Cc1ccc(Cl)cc1)S2(=O)=O)c1ccccc1 | inactive: 148%
CCOc1ccc(NC(=O)CCc2nnc3n(C)c(=O)c4sccc4n23)cc1 | inactive: 166%
CCN(Cc1ccccc1)C(=O)Cn1ncc2c(=O)oc3ccc(C)cc3c21 | inactive: 100%
Cc1cccc(N2CCN(C(=O)c3ccc4c(c3)N(Cc3cccc(Cl)c3)C(=O)c3ccccc3S4(=O)=O)CC2)c1C | inactive: 124%
CCC(C(=O)NC1CCCCC1)n1c(SCc2cccc(F)c2)nc2ccncc21 (centres undefined) | inactive: 124%
CC1(C)CC(CC#N)(Cc2ccccc2)CCO1 (centres undefined) | inactive: 122%

SMILES | survival
COc1ccccc1NC(=O)Cn1ccn(-c2cc(C)cc(C)c2)c(=O)c1=O | inactive: 85%
Cc1ccc(S(=O)(=O)C(CNS(=O)(=O)c2ccc(F)c(C(F)(F)F)c2)c2ccco2)cc1 (centres undefined) | inactive: 81%
CCOc1ccc(CNCc2c(C(=O)O)n(Cc3ccccc3C)c3cc(OC)ccc23)cc1OC | inactive: 114%
O=C(NCc1ccc2c(c1)OCO2)C1CCN(c2ncccn2)CC1 | inactive: 103%
CC(CNC(=O)C1CCN(C(=O)c2cc3sccc3n2C)CC1)c1ccccc1 (centres undefined) | inactive: 82%
Cc1ccc(Cl)cc1Nc1nn2c(=O)c3ccc(C(=O)NC(C)c4ccccc4)cc3nc2s1 (centres undefined) | inactive: 119%
COc1ccccc1CNC(=O)CCc1c(C)nn(-c2ccc(N3CCCCC3)nn2)c1C | inactive: 97%
Cn1nc(C(=O)NCc2ccccc2)c2c1-c1ccccc1S(=O)(=O)C2 | inactive: 85%
Cc1ccc(Cl)cc1N1CCN(C(=O)CCS(=O)(=O)c2ccc3c(c2)oc(=O)n3C)CC1 | inactive: 73%
CCOc1ccc(-n2c(=O)c3c(C)c(C(=O)N(C)C)sc3n(Cc3cc(C)ccc3C)c2=O)cc1 | active: -3%
Cc1ccc(S(=O)(=O)C(CNC(=O)C(=O)NCc2ccc(Cl)cc2)c2ccco2)cc1 (centres undefined) | inactive: 120%
COC(=O)/C(C#N)=C\c1c[nH]c2ccccc12 | inactive: 130%
CCOc1ccccc1CNC(=O)c1oc2ccc3c(c2c1C)C(=O)CC(C)(C)O3 | inactive: 39%
O=c1c2sc3ccccc3c2n(Cc2ccc(F)cc2Cl)c(=O)n1Cc1ccccc1 | inactive: 66%
CCCC(OC(=O)CN1C(=O)COc2ccccc21)C(=O)NC1CCCC1 (centres undefined) | inactive: 102%
CN(C(=O)CSc1nc2ccccc2n1Cc1ccccc1C#N)c1ccccc1 | inactive: 64%
CCOc1ccc(-c2nc3cc(NC(=O)COc4cccc(C)c4)ccc3o2)cc1 | inactive: 128%
CCn1cc(S(=O)(=O)c2ccc(Cl)cc2)c(=O)c2cc(F)c(N3CCOCC3)cc21 | inactive: 75%
CCN(CC)S(=O)(=O)c1ccc(N2CCCCS2(=O)=O)cc1 | inactive: 71%
Cc1ccc(Nc2nc(C(=O)N3CCC(C(=O)NCCN4CCOCC4)CC3)cs2)cc1 | inactive: 103%
